# Laboratory results published in US20230310414A1.
# Assays:
# [1] = tested on: SARS-CoV-2 Spike (S) protein treated human macrophages; assay type: cell-based
# [2] = tested on: SARS-CoV-2 Spike (S) protein treated human macrophages; experiment: apoptosis by caspase 3 activation in Spike protein treated macrophages; assay type: cell-based; conditions: within 2 hours of treatment
SMILES,anti-inflammatory cytokines such as IL-10 [1],"pro-inflammatory cytokines VEGF, IL-6, IL-8, MIP-1α and MIP-1β [1]",apoptosis by activation of caspase 3 [2],expression of cytokine modulators IL-10 and IFN-γ [1],"expression of pro-inflammatory cytokines IL-1a, VEGF, IL-1β, IL-2, IL-4, IL-5, IL-6, IL-8, IL-12p70, IL-13, GM-CSF, GRO, MCP-1, MIP-1α, MIP-1p, MMP-9, RANTES, and TNF-α [1]",expression of the anti-inflammatory cytokine IL-10 [1],"pro-inflammatory cytokines such as IL-1β, TNF-α, IL-6 IL-8, IL-12, MCP-1 and MIP-1α [1]"
"COc1ccc2cc1Oc1ccc(cc1)C[C@H]1c3cc(c(OC)cc3CCN1C)Oc1c(OC)c(OC)cc3c1[C@H](C2)N(C)CC3 [tetrandrine, (1S,14S)-9,20,21,25-tetramethoxy-15,30-dimethyl-7,23-dioxa-15,30-diazaheptacyclo[22.6.2.2^3,6.1^8,12.1^14,18.0^27,31.0^22,33]hexatriaconta-3(36),4,6(35),8,10,12(34),18,20,22(33),24,26,31-dodecaene]",inducing,selectively inhibited,selectively induces apoptosis,,,,
O.O=C(OC[C@H]1O[C@@H](OC(=O)c2cc(O)c(O)c(O)c2)[C@H](OC(=O)c2cc(O)c(O)c(O)c2)[C@@H](OC(=O)c2cc(O)c(O)c(O)c2)[C@@H]1OC(=O)c1cc(O)c(O)c(O)c1)c1cc(O)c(O)c(O)c1,,,,activated expression,inhibited expression,increasing expression,suppressed
